Experimental data reported in PubChem BioAssay AID488969 (Vanderbilt High Throughput Screening Facility, 2010).
In all, about 110,000 compounds were measured (“z-score”: median about -0.1, highest 2% from about 2 on). The list shows a part of the results.

target: Metabotropic glutamate receptor 8 (Rattus norvegicus) (UniProt P70579); test: rat mGluR8 modulators via GIRK flux, primary screen, cell-based, thallium flux, HTS (AID 488969); conditions: HEK293 rat mGluR8, GIRK (G protein-gated inwardly rectifying potassium channel) thallium flux, FluoZin2; at 10 µM; stronger effect = higher value; submaximal glutamate (EC20) added with thallium
UniProt P70579, sequence (P70579 whole entry, looked up): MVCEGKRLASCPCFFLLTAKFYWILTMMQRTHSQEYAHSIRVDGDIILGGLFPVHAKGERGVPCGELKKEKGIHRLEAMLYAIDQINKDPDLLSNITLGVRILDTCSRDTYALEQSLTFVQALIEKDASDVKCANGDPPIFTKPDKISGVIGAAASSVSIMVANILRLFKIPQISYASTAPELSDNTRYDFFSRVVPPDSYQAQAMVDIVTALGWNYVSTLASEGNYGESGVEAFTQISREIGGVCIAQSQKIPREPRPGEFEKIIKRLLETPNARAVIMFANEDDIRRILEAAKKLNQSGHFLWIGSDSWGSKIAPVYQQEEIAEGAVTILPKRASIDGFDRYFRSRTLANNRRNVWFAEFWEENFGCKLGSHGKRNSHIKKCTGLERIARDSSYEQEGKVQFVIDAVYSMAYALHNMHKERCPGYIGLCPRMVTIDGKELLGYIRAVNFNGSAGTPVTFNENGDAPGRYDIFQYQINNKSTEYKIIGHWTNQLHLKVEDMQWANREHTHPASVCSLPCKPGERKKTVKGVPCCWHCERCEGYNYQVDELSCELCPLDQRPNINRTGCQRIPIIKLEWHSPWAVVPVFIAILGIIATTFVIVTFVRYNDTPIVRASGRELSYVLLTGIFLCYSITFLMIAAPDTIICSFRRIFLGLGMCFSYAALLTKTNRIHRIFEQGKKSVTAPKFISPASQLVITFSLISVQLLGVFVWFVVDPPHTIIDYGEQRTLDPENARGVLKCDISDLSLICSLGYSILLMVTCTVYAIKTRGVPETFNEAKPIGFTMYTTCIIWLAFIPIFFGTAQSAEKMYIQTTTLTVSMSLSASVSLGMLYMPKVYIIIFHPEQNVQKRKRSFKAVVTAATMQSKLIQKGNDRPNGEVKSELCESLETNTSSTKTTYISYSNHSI

First: CCOC(=O)c1ccccc1NC(=O)C=C(C)C
Second: CCCC(=O)Nc1ccccc1NC(=O)C1CCCCC1
The z-score of the first is lower: -0.595 for the first, 0.215 for the second.

Going from `N#Cc1nc(COc2ccccc2)oc1NCCCn1ccnc1` to `c1ccc(NCc2nc3ccccc3n2CCOc2ccccc2)cc1`, the z-score rises from -0.299 to -0.153.

`CCOC(=O)c1cc(S(=O)(=O)N2CCN(C(=O)OCC)CC2)cn1C` and `CCOC(=O)N1CCN(c2ccc(C(F)(F)F)cn2)CC1` are the same in z-score: -0.144 for the first, -0.144 for the second.

Going from `COC(=O)c1nn(-c2ccc(C)cc2)c2nnc(Cc3ccccc3)c(=O)n12` to `Cc1cc(C(=O)NCc2cccnc2)n(-c2ccccc2)n1`, the z-score rises from -0.16 to -0.00475.

Going from `O=C(CCCC(=O)OCC(F)(F)C(F)F)Nc1ccc(NC(=O)CCCC(=O)OCC(F)(F)C(F)F)cc1` to `CC(C)(C)c1ccc(OCCCC(=O)NC2=NCCS2)cc1`, the z-score rises from -0.405 to -0.13.

Compared with `COc1ccc(C)cc1N(CC(=O)O)S(=O)(=O)c1ccc(C)cc1`, `CCN(c1nc(C)cc(OC)n1)S(=O)(=O)c1ccccc1` is higher in z-score: -0.321 for the first, -0.243 for the second.

Compared with `COc1ccc(/C=C(\C#N)c2nc3ccc(C)cc3[nH]2)cc1Oc1ccc(C(F)(F)F)cc1[N+](=O)[O-]`, `Cc1ccc(NC(=O)Nc2nnc(Cc3ccc([N+](=O)[O-])cc3)s2)cc1C` is higher in z-score: -0.0769 for the first, 0.424 for the second.

First: Cc1ccc2cc(CN(CCCN3CCOCC3)C(c3nnnn3Cc3ccco3)C(C)C)c(=O)[nH]c2c1C (centres undefined)
Second: CCN(CC)C(=O)CNC(=S)N(CCCN1CCOCC1)Cc1cccs1
The z-score of the first is higher: -0.0138 for the first, -0.0461 for the second.

Compared with `CCOc1cc(S(=O)(=O)NCCc2ccc(OC)c(OC)c2)c(OCC)cc1-n1cnnn1`, `COc1ccc(CCNC(=O)c2sc3ccccc3c2Cl)cc1OC` is lower in z-score: -0.22 for the first, -0.565 for the second.

Compared with `CC1CCCCN1C/C=C/c1ccccc1[N+](=O)[O-]` (centres undefined), `CS(=O)(=O)N1CCN(c2c(Cl)cccc2[N+](=O)[O-])CC1` is higher in z-score: -0.203 for the first, -0.0974 for the second.

First: O=C1CC(c2c[nH]c3ccccc23)C(=O)N1c1ccccc1 (centres undefined)
Second: CCOC(=O)c1oc2ccccc2c1CSc1nnnn1-c1ccccc1
The z-score of the first is higher: 0.0336 for the first, -0.727 for the second.

Going from `O=C(COc1ccc(Br)cc1)N1CCN(S(=O)(=O)/C=C/c2ccccc2)CC1` to `COc1ccc(-c2ccc(=O)n(CC(=O)N3CCN(c4ccccc4OC)CC3)n2)cc1`, the z-score falls from -0.057 to -0.0822.

First: O=C(Cc1c(F)cccc1Cl)N1CCCC1
Second: S=C(c1ccc2c(c1)OCO2)N1CCCCCC1
The z-score of the first is lower: 0.183 for the first, 0.367 for the second.

First: CCCc1nc(N2CCCC2)c(C#N)c2c1CCCC2
Second: Cn1c(SCc2nnc3n2CCCCC3)nc2ccccc21
The z-score of the first is lower: -0.133 for the first, 0.354 for the second.

First: NC(=O)C1CCN(c2ncnc3c(-c4ccccc4)nsc23)CC1
Second: CCOC(=O)c1nnc(-c2ccccc2)nc1NCc1ccccc1
The z-score of the first is higher: -0.459 for the first, -0.476 for the second.

First: COc1ccccc1OCCCn1c(=O)sc2ccccc21
Second: COc1ccc(C(=O)NCCn2ccc3ccccc32)c(OC)c1
The z-score of the first is higher: -0.167 for the first, -1.56 for the second.

First: O=C(Nc1ncc(Cc2ccccc2Cl)s1)c1ccc(-c2cccc([N+](=O)[O-])c2)o1
Second: O=C(CCc1ccccc1)Nc1cccc(-c2nnc(-c3ccco3)o2)c1
The z-score of the first is higher: -0.173 for the first, -0.189 for the second.

First: COc1ccc(/C=N/NC(=O)c2ccccc2O)cc1CSc1ccccn1
Second: CC(C)(C)c1cc(C(=O)Nc2cccc3ccccc23)ccn1
The z-score of the first is higher: 0.779 for the first, -0.369 for the second.

First: O=C(O)CN=C1NC2(CCCCC2)Cc2ccccc21
Second: O=C1Cc2ccccc2Sc2cc(OCCCN3CCCCC3)ccc21
The z-score of the first is lower: 0.0399 for the first, 1.12 for the second.

Compared with `Cc1cc(C)n2nc(-c3cccnc3)nc2n1`, `CC(C)CC(=O)Nc1ccc2oc(-c3cccnc3)nc2c1` is lower in z-score: 0.012 for the first, -0.257 for the second.

Going from `CC(=O)Cn1c(C(F)(F)F)nc2ccccc21` to `CSCC[C@H](NC(=O)CC(C)(C)C)c1nc2ccccc2[nH]1`, the z-score falls from 0.0143 to -0.333.

First: Cc1cc(C)cc(CC(Cc2nc3ccccc3[nH]2)c2nc3ccccc3[nH]2)c1 (centres undefined)
Second: c1ccc(-c2nc(NCc3cccnc3)c3ccccc3n2)cc1
The z-score of the first is higher: 0.00285 for the first, -0.237 for the second.

Going from `C=CCSc1n[nH]c(-c2ccc(OCCC)cc2)n1` to `Cc1nc(SCc2c(F)cccc2Cl)n[nH]1`, the z-score falls from 0.93 to 0.0291.

Going from `Cc1[nH]c(=O)[nH]c(=O)c1/C=N/NC(=O)[C@H](C)NC(=O)OC(C)(C)C` to `C/C=C/C(=O)OCC(=O)NC(=O)NC(C)C`, the z-score falls from -0.214 to -0.893.

Going from `COc1ccc(C2N3CC4(C)CN2CC(C)(C3)C4O)cc1OC` (centres undefined) to `COc1ccc(OC)c(C(=O)CSc2nnc(-c3cccs3)n2C)c1`, the z-score rises from -0.873 to -0.572.

First: O=C(O)CCCNS(=O)(=O)c1ccc(F)cc1
Second: CCN(CC)S(=O)(=O)c1ccc(S(=O)(=O)N2CCCC2C(=O)O)cc1 (centres undefined)
The z-score of the first is higher: -0.131 for the first, -0.394 for the second.

Going from `COc1ccccc1N1CCN(C(c2cccs2)C(C)NC(=O)c2cccs2)CC1` (centres undefined) to `Cc1ccc(N2CCN(C(=O)c3ccccc3Br)CC2)c(C)c1`, the z-score falls from -0.195 to -0.466.

Compared with `CCOC(=O)C1CCCN(C(=O)c2cc3c(-c4cccc(OC)c4)nn(C)c3s2)C1` (centres undefined), `CCOC(=O)C1CCCN(C(=O)C(C)Oc2ccc(Cl)cc2Cl)C1` (centres undefined) is lower in z-score: -0.832 for the first, -1.01 for the second.

Going from `CCc1ccc2c(c1)cc(CN(C(=S)Nc1ccccc1C)C1CC1)c1nnnn12` to `COc1ccccc1NC(=S)N1CCC(c2nc3cc(C)c(C)cc3[nH]2)CC1`, the z-score falls from 0.143 to -0.359.

Compared with `CCCCc1nnc(NC(=O)CSc2nc(=O)cc(N)n2-c2cccc(C)c2)s1`, `Cc1nnc(NC(=O)CSc2nccn2-c2cccc(C)c2C)s1` is lower in z-score: -0.519 for the first, -0.535 for the second.

First: Cc1ccccc1CN(c1ccc(C(=O)Nc2ccccc2C(=O)NCc2ccco2)cc1)S(C)(=O)=O
Second: COc1ccccc1NC(=O)Nc1ccc(Cl)c(S(=O)(=O)Nc2ccccc2OC)c1
The z-score of the first is lower: -0.0931 for the first, 0.428 for the second.

Going from `COC(=O)CSc1nc2ccc(NC(C)=O)cc2s1` to `C/C(=N\NC(=O)CSc1nnc(C)s1)c1ccc(O)cc1`, the z-score rises from -0.096 to 0.00192.

Compared with `c1cc(C(c2nnnn2C2CCCCC2)N2CCN3CCCC3C2)ccn1` (centres undefined), `O=C(C1CCCCC1)N1CCC(n2nnc3ccccc32)CC1` is lower in z-score: -0.11 for the first, -0.194 for the second.

Compared with `CN(C)C(=S)NCc1ccccc1`, `CCCn1nnnc1SCC(=O)NCc1ccccc1` is higher in z-score: 0.087 for the first, 0.377 for the second.

Compared with `CCCCS(=O)(=O)Nc1ccc2c(c1)ncn2C1CCCCC1`, `Cc1ccc(C(=O)NNC(=O)CCN2C(=O)C3CCCCC3C2=O)cc1` (centres undefined) is lower in z-score: 0.544 for the first, -0.342 for the second.

Going from `CC(C)NC(=S)N/N=C/c1cccs1` to `Cc1ccc(/C=C/C(=O)NCc2cccs2)cc1`, the z-score falls from 1.57 to -0.0205.

Going from `Cc1csc2nc(CSc3ccc(Cl)cc3)cn12` to `Cc1nn2c(N)c(C#N)cnc2c1-c1ccc(Cl)cc1`, the z-score rises from -0.569 to -0.468.

First: CCC1CCc2c(sc(NC(=O)c3ccoc3C)c2C(N)=O)C1 (centres undefined)
Second: CCC(C)(C)C1CCc2c(sc(NC(=O)c3cccs3)c2C(N)=O)C1 (centres undefined)
The z-score of the first is lower: -0.28 for the first, 0.11 for the second.

Compared with `CCN(CC)c1ccc(/C=N/Nc2nc3ccccc3[nH]2)cc1`, `Cc1ccccc1Cn1cnc2c(nnn2Cc2ccc(F)cc2)c1=O` is higher in z-score: -0.685 for the first, 1.14 for the second.

First: COC(=O)C(NC(=O)C(CC(C)C)NC(=O)C1CCC(C)CC1)C(C)C (centres undefined)
Second: COc1ccc(NC(=O)COC(=O)CC2CC3CCC2C3)c([N+](=O)[O-])c1 (centres undefined)
The z-score of the first is higher: 0.467 for the first, -0.182 for the second.

Compared with `COc1ccc2nc3sc(C(=O)NCc4cccs4)c(N)c3cc2c1`, `COc1ccc(C)c(Cn2c(-c3nonc3N)nc3ccccc32)c1` is higher in z-score: -0.595 for the first, -0.276 for the second.

First: Cc1ccc(C)n1C(Cc1ccccc1)C(=O)O (centres undefined)
Second: Cc1cc(C)c2c(N)c(S(=O)(=O)Cc3ccccc3)sc2n1
The z-score of the first is higher: -0.216 for the first, -0.398 for the second.

Going from `Cc1cc(C(=O)Nc2ccccn2)no1` to `Cc1nc2ccccc2c2oc(C(=O)NCC3CCCO3)cc12` (centres undefined), the z-score falls from -0.0646 to -0.169.

Compared with `Cc1cccc(OCCN2CSC(=S)N(C)C2)c1`, `CCOc1ccccc1N1CCN(Cc2ccco2)CC1` is higher in z-score: -0.523 for the first, 0.418 for the second.

Compared with `COc1ccc(Cc2nnc(NC(=O)CSc3ccc(C)cc3)s2)cc1`, `COc1ccc(N(C(=O)c2ccc(F)cc2)C2=CC3CCC(C2)N3C)cc1` (centres undefined) is higher in z-score: 0.0974 for the first, 0.526 for the second.

First: Cc1c(/C=C/C(=O)c2ccc(Cl)s2)cnn1C
Second: N/C(=N\OC(=O)c1ccccc1Cl)c1cccnc1
The z-score of the first is lower: -0.148 for the first, 0.269 for the second.

First: O=C(OCCN1C(=O)c2ccccc2C1=O)c1cnccn1
Second: O=C1c2ccccc2C(=O)N1CCCC(=O)N1CCc2ccccc21
The z-score of the first is higher: -0.322 for the first, -0.331 for the second.

Going from `CC1CCN(S(=O)(=O)c2ccc(NC(=O)CCN3C(=O)c4ccccc4C3=O)cc2)CC1` to `CCN1CCN(c2ccc(NC(=O)Cc3ccccc3)cc2)CC1`, the z-score rises from -0.0347 to 0.253.

First: Cc1cc(C(C)(C)C)oc1C(=O)N1CCN(C(=O)c2oc(C(C)(C)C)cc2C)CC1
Second: CCC(CC)C(=O)Oc1c(Sc2ccccc2[N+](=O)[O-])c(C)nn1C(C)(C)C
The z-score of the first is higher: -0.122 for the first, -0.136 for the second.

Compared with `CCn1c(=O)c2cc(S(=O)(=O)NCCOc3ccccc3)ccc2n(CC)c1=O`, `Cc1noc(C)c1COc1cccc(C(=O)OCC(=O)N2CC(=O)Nc3ccccc32)c1` is lower in z-score: -0.212 for the first, -0.576 for the second.

Going from `COc1ccc(N(C)C(=O)CCS(=O)(=O)c2cccc3nonc23)c(OC)c1` to `Cc1cc(C(=O)NCc2ccc(S(N)(=O)=O)cc2)cs1`, the z-score falls from 0.0431 to -0.157.

First: Cc1ccc(CNC(=O)c2oc3ccc(S(=O)(=O)N4CCC5(CC4)OCCO5)cc3c2C)cc1
Second: CCOC(=O)CSC1=C(C#N)C(c2ccc(C)cc2)C2=C(CCCC2=O)N1 (centres undefined)
The z-score of the first is lower: -0.761 for the first, -0.561 for the second.

Going from `O=C1C(Cl)=C(NCCCO)C(=O)c2ccccc21` to `CS(=O)(=O)NCCCNc1ccc(Cl)cc1[N+](=O)[O-]`, the z-score falls from -0.185 to -0.243.

First: COc1ccc(C(C(=O)NC2CCCCC2)N(C(=O)c2ccco2)c2ccc(-n3cnnn3)c(C)c2)cc1 (centres undefined)
Second: Cc1ccc(NC(C#N)c2ccccc2OCc2ccccc2)cc1 (centres undefined)
The z-score of the first is higher: -0.0291 for the first, -0.136 for the second.

First: CN(C)CCNc1ncnc2ccccc12
Second: O=S(=O)(/N=C(/Nc1ccccn1)c1ccccc1)c1ccccc1
The z-score of the first is lower: -0.498 for the first, -0.0611 for the second.

Going from `Clc1ccc(C2=Nn3c(nnc3-c3cccs3)SC2)cc1` to `O=C(N1CCN(c2ccccc2F)CC1)C1(c2cccs2)CCOCC1`, the z-score falls from -0.153 to -0.232.

Compared with `Nc1nc(SCc2nc(-c3ccccc3)no2)[nH]c(=O)c1-c1ccccc1`, `CCCN(CC(=O)Nc1ccc(Cl)cc1Cl)C(=O)/C=C/c1cccc([N+](=O)[O-])c1` is higher in z-score: -0.0707 for the first, 0.198 for the second.
